The list shows a part of the results. At the low end of the ranking the order means little.
System: T1, GST-NbGlk1(82-244)
T1 sequence: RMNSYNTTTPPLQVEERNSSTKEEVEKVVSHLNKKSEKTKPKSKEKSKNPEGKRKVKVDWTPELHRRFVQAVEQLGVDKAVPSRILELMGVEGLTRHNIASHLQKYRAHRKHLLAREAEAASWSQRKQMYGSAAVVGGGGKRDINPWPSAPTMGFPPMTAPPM
Test: protein-binding microarray;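 also: rank-based score ranging −0.5 to +0.5 with E above 0.45 taken as significant binding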
Settings: NbGlk1 is a Golden2-like transcription factor of Nicotiana benthamiana; high values mean tight binding; most listed sequences are background and not binding sites; double strand, one strand shown

Sequence | binding signal [E-score]
ACGACTGG | -0.172
AAATTTCT | 0.177
AGGTACGA | -0.113
AAAGGAAA | -0.00944
ATACCCAG | 0.185
ACGGCACG | -0.176
ACGGCAAC | -0.113
ACATGCAT | 0.0266
ATCCCCAA | 0.276
ACAGAAGG | -0.233
ACTTAGTC | -0.171
ATAATCAG | 0.222
ATACATAT | 0.204
AACTATAG | 0.0186
AGGTGGTG | -0.14
AGTGGCGC | -0.291
CAGATTAA | -0.027
AGTTGTCC | -0.236
ATGGTAGA | 0.136
ACTATTAT | 0.105
ACGCATCG | -0.0749
ATATGGAG | 0.0522
ACATTTAT | 0.114
ATATCCGA | 0.402
ATAACCTG | -0.0659

Sequence | binding signal [E-score]
AAACAAAG | -0.0268
AGACCGAG | -0.146
ATGCTGAA | 0.014
CAGCATAG | 0.00686
ATGTTTGG | -0.108
AGTGCGCA | 0.16
AGGCGTTG | -0.131
ATGGACCA | -0.231
ACGTATAC | 0.0202
CAATTAAG | 0.0791
ATAGCGCA | 0.0829
ATCTGTAA | 0.331
AACACAAT | 0.213
ACATCGGA | 0.12
AGGTAACT | 0.00979
ACCGGATG | 0.0134
AGTCAGTA | -0.0436
ATGACTGC | -0.125
ACACAACT | 0.0134
ACTGGAAG | -0.0706
AACTATCC | 0.00349
AACGATTG | 0.0543
AGGCCACA | -0.122
CACGAGCC | -0.272
ATGACGAC | -0.135

Sequence | binding signal [E-score]
ACTCCCGC | -0.0162
ATAAAAAA | 0.217
CACAAATC | 0.274
CACACCAA | -0.14
ACGGAGCT | -0.283
CACTCTAA | -0.00764
ATAGGAGG | -0.198
ATTGGAAA | 0.0951
AAGGAAGA | -0.0623
ATCGATTC | 0.347
AATCGCTG | 0.234
AGTGACCC | -0.196
ACTAGCAG | -0.0801
AGTGTGAA | -0.0487
AGTGTGAC | -0.0876
ATGTTGAA | 0.0521
AGAAGAAT | 0.211
AGCGGCTG | -0.246
AGGTTGAG | -0.15
AGCACGGC | -0.254
AGCGTGTA | -0.0986
AAATTTAA | 0.181
AAGGGTTA | -0.155
AAAACATT | -0.0401
AGAGGACT | -0.169

Sequence | binding signal [E-score]
AAATGAGC | -0.206
ATACCGAT | 0.276
AGCGGGAT | 0.16
AACTAGCA | 0.0358
AGTCTATG | -0.118
ACTTCAGG | -0.0502
ACGTCACG | -0.0816
ACAGGCGA | 0.00804
ATTTACTG | 0.179
ACATATAC | 0.0453
ATCAGGAC | 0.121
ATGAGATC | 0.369
CAATTCGA | -0.103
ATGTTGAG | 0.0331
AACAGACA | 0.0656
AACGTCTG | -0.232
AGAATGGC | 0.0395
ATTGTTCG | 0.168
AAATGGCA | -0.137
ATGGTTGC | -0.133
AACTCAAT | 0.0219
CAAGTAAA | 0.0961
ACCAGAGA | 0.0877
AACCAATG | -0.0901
AAGTTGTC | -0.0549

Sequence | binding signal [E-score]
AAACTTAT | 0.0935
AAGACCAG | -0.198
ACGAGTCG | -0.132
ACGACCTG | -0.199
ATCGACGA | 0.0244
ACAACTTC | 0.0159
CACCTGAC | -0.216
AGTGAAGC | -0.326
AACAATAC | 0.123
AAGTCGAT | 0.0692
ATCCTATC | 0.258
AGCTCCGA | -0.141
AGAATAAA | 0.111
CAAGGCAA | 0.0148
CAGATCTC | 0.423
ACACAGGC | -0.0796
ACGCAAGG | -0.06
ACAGGCTC | -0.26
AACCAAGT | -0.0506
AGCGGCCA | -0.203
ACAGTACT | -0.0119
ATCTGCCA | 0.256
AGGGTAAT | 0.262
ATGGATCA | 0.00621
ACAGGTCA | -0.081

Sequence | binding signal [E-score]
AAACGCGC | 0.0641
CACATAGG | -0.119
CAACGAAC | -0.144
ATTACGAA | 0.341
ACATTTCG | 0.192
CAACCTTC | -0.194
CAAAGAAA | 0.0504
AGATTTGC | 0.469
AGTCTTTG | -0.0203
AGGGCTGA | -0.175
CACGTTCC | -0.0575
ACTTTTGA | -0.0218
ACGCGTAA | 0.0978
AAACTGTA | -0.125
AACGAGGA | -0.0079
AACACATA | 0.00785
ATAGTGCG | 0.0274
ATGTTTAA | 0.0991
AAGGCCCA | -0.243
AGCCCGAT | 0.0183
ACAAACTA | 0.0851
AAGGAGTC | -0.161
ACTAATAC | -0.0271
AAGAGGTA | -0.0613
ACTAGAAT | 0.177

Sequence | binding signal [E-score]
AGGATCCA | 0.237
ACCATCCG | -0.0868
ATGTGACC | -0.232
AAATTAAA | 0.0849
AGAGCACC | -0.325
AAGTACGG | -0.118
ACATAATA | 0.13
AGTAATGA | 0.00256
AACTAGCG | -0.134
CAGCAACC | -0.101
CAACACTA | 0.00718
AGCAAGAA | -0.0277
AGCGCTCC | -0.162
ATATGAAA | 0.266
AGGGTTAA | -0.0971
ACAGATCA | 0.0773
ACCCGTCG | -0.193
ACGACATC | 0.109
ATATGATA | 0.219
ACACTAGC | -0.14
AATTGCTC | 0.0671
ATCCAGAC | 0.19
